Laboratory results reported in PubChem BioAssay AID624417 (National Center for Advancing Translational Sciences (NCATS), 2012).
In all, about 410,000 compounds went through this assay and about 6,400 (1.6%) were called active. The shares of active, inactive and inconclusive entries below differ from those in the screen. The call rests on the fitted dose curve; in most records, active means well fitted inhibition curve with a large enough effect; inconclusive means small, poorly fitted or top-dose-only effect; inactive means no such curve, though single readings can be large or run the other way. No potency is given beside an inconclusive call; the fits are too rough.

molecular target: Glucagon-like peptide 1 receptor (Homo sapiens) (UniProt P43220); assay: qHTS of GLP-1 Receptor Inverse Agonists (Inhibition Mode); details: HEK293 GLP-1R CRE-luciferase, luminescence, 24 h, GLP-1R form is constitutively active; activity change, negative = inhibition: at 38.3 µM (top of the series) unless noted; further: nearly all actives have a fitted effect of over 55% in size
Sequence of UniProt P43220 (P43220 whole entry, looked up): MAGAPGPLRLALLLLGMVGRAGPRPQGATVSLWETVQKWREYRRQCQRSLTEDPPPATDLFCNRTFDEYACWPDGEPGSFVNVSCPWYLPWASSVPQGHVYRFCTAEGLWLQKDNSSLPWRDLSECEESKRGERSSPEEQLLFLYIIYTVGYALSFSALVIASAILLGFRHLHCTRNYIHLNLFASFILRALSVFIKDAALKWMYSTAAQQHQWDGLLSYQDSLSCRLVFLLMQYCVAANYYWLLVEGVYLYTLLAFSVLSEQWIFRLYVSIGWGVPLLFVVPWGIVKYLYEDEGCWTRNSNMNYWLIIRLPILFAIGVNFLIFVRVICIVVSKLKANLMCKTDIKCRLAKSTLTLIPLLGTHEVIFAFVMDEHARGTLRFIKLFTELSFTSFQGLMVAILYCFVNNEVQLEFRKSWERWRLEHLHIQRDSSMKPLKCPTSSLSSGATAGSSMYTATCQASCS
How it was run: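 qHTS in 1536-well format: reporter HEK293 cells expressing constitutive GLP-1R activity in DMEM + 10% Nu serum, 24 hr with compounds at 37 deg C, luminescence read after 12 min with detection reagent.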
On the % scale 0 is the no-effect control and ±100 the full control effect; potency means the concentration at half of the fitted maximal effect; tags describe the fitted curve by direction and shape.

Row | SMILES | Potency | activity change, negative = inhibition
1 | CC(C)(C)n1ncc2c(=O)n(CC(=O)NCc3ccc(F)cc3)cnc21 | inconclusive [inhibitor, partial curve, poor fit] | 
2 | CCOC(=O)Cc1csc(NC(=O)CC(C)(C)C)n1 | inconclusive [inhibitor, partial curve, poor fit] | 
3 | Cc1ccc(C(OCC(O)CNC(C)c2ccccc2)c2ccccc2)cc1 (centres undefined) | inconclusive [inhibitor, partial curve, poor fit] | 
4 | COc1ccccc1CNC(=O)CCC1N=C2c3ccccc3N=C(SCC(=O)Nc3ccc(N(C)C)cc3)N2C1=O (centres undefined) |  | inactive: 0.255%
5 | Cn1c(=S)c2[nH]c(SCc3cccnc3)nc2n(C)c1=O | inconclusive [inhibitor, full curve, poor fit] | 
6 | CCCC(=O)NC(C)c1nc2ccccc2n1Cc1ccccc1 (centres undefined) |  | inactive: -12.1%
7 | Cc1cc2nc(C(C)(C)C)c(Cc3ccccc3C(F)(F)F)n2c(C)c1Br | inconclusive [inhibitor, single point] | 
8 | O=C(Nc1ccccc1Cl)c1cc(C2CCCN(C(=O)C3CCCCC3)C2)on1 (centres undefined) | inconclusive [inhibitor, single point] | 
9 | CCCc1cc(C(=O)N2CCCC(Nc3ccc(C)c(C)c3)C2)n(C)n1 (centres undefined) | inconclusive [inhibitor, partial curve] | 
10 | CCCCNC(=S)N1CCn2cccc2C1c1ccccc1 (centres undefined) | inconclusive [inhibitor, partial curve, poor fit] | 
11 | Cc1ccc(NCC(=O)Nc2cccc(S(=O)(=O)N(C)C)c2)cc1S(=O)(=O)N1CCCCCC1 | inconclusive [inhibitor, single point] | 
12 | CCCCN(CC(O)COc1cccc(C)c1)CC(O)COc1cccc(C)c1 (centres undefined) | inconclusive [inhibitor, partial curve, poor fit] | 
13 | Cc1cc(C(=O)N2CCN(c3cccc(C)c3C)CC2)c2c(C)nn(-c3ccccc3)c2n1 |  | inactive: 12.9%
14 | CC(=O)Nc1ccc(S(=O)(=O)Nc2c(NC3CCCCC3)c3ccccc3oc2=O)cc1 |  | inactive: 9.5%
15 | CCOC(=O)C1=C(C)NC(C)=C(C(=O)OCC)C1C(=O)OCC(=O)NC1CCCCC1 | inconclusive [inhibitor, single point] | 
16 | Cc1ccc(OCCNC(=O)c2cccc(Oc3ccc(C(F)(F)F)cc3[N+](=O)[O-])c2)cc1 | inconclusive [inhibitor, partial curve, poor fit] | 
17 | CCCCCC(=O)N1C[C@H](O)[C@@H](n2cc(-c3ccc(F)cc3)nn2)C[C@@H]1c1ccc(C)cc1 | active: 10 µM | 
18 | COc1cccc(-c2ccc3c(N)c(C(=O)Nc4cc(C(F)(F)F)ccc4OC)sc3n2)c1 |  | inactive: 37.5%
19 | COc1ccc(C(NC(=O)c2cc(OC)ccc2OC)c2ccccc2)cc1 (centres undefined) | inconclusive [inhibitor, partial curve, poor fit] | 
20 | CSC1=C(C#N)C2(CCCCC2)C(C(=O)Nc2ccccc2)=C(C)N1 | inconclusive [inhibitor, partial curve, poor fit] | 
21 | CC(C)OP(=O)(c1ccc(N(C)C)cc1)C(Nc1ccccc1)c1ccccc1 (centres undefined) | inconclusive [inhibitor, single point] | 
22 | CCCS(=O)(=O)c1nc(S(=O)(=O)c2ccc(C)cc2)c(N(C)Cc2ccccc2)s1 | inconclusive [inhibitor, partial curve, poor fit] | 

Row | SMILES | Potency | activity change, negative = inhibition
23 | CC(=O)c1cccc(CN2CCCC(C(=O)Nc3ccc(-c4ccco4)cc3)C2)c1 (centres undefined) | inconclusive [inhibitor, single point] | 
24 | c1ccc(Nc2ccnc(Nc3ccccc3)n2)cc1 | inconclusive [inhibitor, single point] | 
25 | NC(=O)c1ccccc1N/C=C/C(=O)c1ccc(Cl)cc1Cl | inconclusive [inhibitor, single point] | 
26 | Cc1cc(C)cc(OCc2ccc(C(=O)N3N=C(C(F)F)CC3(O)C(F)F)o2)c1 (centres undefined) | inconclusive [inhibitor, partial curve, poor fit] | 
27 | CS(=O)(=O)c1ccc(C(=O)OCC(=O)Nc2cccnc2Cl)cc1[N+](=O)[O-] |  | inactive: -22.4%
28 | Oc1[nH]c2ccccc2c1N=NC(=S)N1CCOCC1 | inconclusive [inhibitor, full curve, poor fit] | 
29 | O=C1C2CCCN2C(=O)N1CCCCN1CCN(c2cccc(Cl)c2)CC1 (centres undefined) | inconclusive [inhibitor, single point] | 
30 | Cc1nc2ccc(NC(=O)N3CCCCC3)cc2nc1C |  | inactive: 46.8%
31 | O=C(CN(c1cc(C(F)(F)F)ccc1Cl)S(=O)(=O)c1ccccc1)NCc1cccnc1 | inconclusive [inhibitor, partial curve] | 
32 | CC1(C(=O)NCCc2ccccc2)Cc2c(-c3ccccc3)ccnc2O1 (centres undefined) | inconclusive [inhibitor, partial curve] | 
33 | CCCc1ncc(C(O)c2ccccc2OC)n1C (centres undefined) |  | inactive: 1.27%
34 | COc1ccc(CC2(CO)CCN(C(=O)NCc3ccccc3)CC2)cc1 | inconclusive [inhibitor, single point] | 
35 | CC(=O)Nc1ccc(-c2ccnc3c2CC(C(=O)Nc2cccc(N(C)C)c2)O3)cc1 (centres undefined) | inconclusive [inhibitor, full curve] | 
36 | N#C/C(=N/Nc1ccc(OC(F)(F)F)cc1)C(N)=S | inconclusive [inhibitor, full curve, poor fit] | 
37 | Cc1ccc2nsnc2c1S(=O)(=O)NCCc1c(C)[nH]c2ccc(F)cc12 | inconclusive [inhibitor, single point] | 
38 | Cc1cccc(Nc2n[nH]c(C)c2[N+](=O)[O-])c1 | inconclusive [inhibitor, single point] | 
39 | Cc1ccc(-c2nc(CSCC(=O)NCCCN3CCOCC3)c(C)o2)cc1 |  | inactive: 0%
40 | Cc1ccc(CN2CCN(Cc3ccc(-n4cccn4)cc3C)CC2CCO)cc1 (centres undefined) | inconclusive [inhibitor, partial curve, poor fit] | 
41 | Cc1ccc(NC(=S)N2CCC(c3ccc(C)cc3)C2)cc1 (centres undefined) | inconclusive [inhibitor, single point] | 
42 | CCOC(=O)c1cccc(NC(=O)/C=C/c2ccc3c(c2)OCO3)c1 | inconclusive [inhibitor, partial curve, poor fit] | 
43 | COc1ccc(Nc2c3ccccc3nc3ccccc23)cc1 | inconclusive [inhibitor, partial curve, poor fit] | 
44 | O=C(C1CCCO1)N1CCN(Cc2c(O)ccc3ccccc23)CC1 (centres undefined) | inconclusive [inhibitor, single point] | 

Row | SMILES | Potency | activity change, negative = inhibition
45 | Cc1cccc(NC(=S)N2CCN(c3ccccc3F)CC2)c1C | inconclusive [inhibitor, partial curve] | 
46 | O=C(O)CN1C(=O)/C(=C\c2cc(Br)ccc2OCc2ccccc2Cl)SC1=S | inconclusive [inhibitor, partial curve] | 
47 | CCC(=O)Nc1ccc(NC(=O)c2ccccc2)nc1 | inconclusive [inhibitor, partial curve, poor fit] | 
48 | CN(C)S(=O)(=O)c1ccc(Cl)c(NC(=O)COC(=O)CNC(=O)c2ccco2)c1 |  | inactive: 6.74%
49 | CCOc1ccccc1NC(=O)c1nc(SC(C)C)ncc1Cl |  | inactive: -5.61%
50 | CCc1ccc(NC(=O)CN2C(=O)C(c3ccc(Cl)cc3)=NC23CCCCC3)cc1 | active: 11.2 µM | 
51 | COc1ccc(Cc2c(-c3ccco3)nc3ccc(Br)cn23)c(C)c1 | inconclusive [inhibitor, single point] | 
52 | O=S1(=O)c2c(F)cccc2O[C@@H](COCc2ccccc2)CN1CCc1ccc(F)cc1 | inconclusive [inhibitor, single point] | 
53 | Cc1cccc(C)c1OCCCn1c(CCNC(=O)C2CCCCC2)nc2ccccc21 | inconclusive [inhibitor, single point] | 
54 | CCCN(c1ccc(OCC)cc1)c1ncnc2nc[nH]c12 | inconclusive [inhibitor, single point] | 
55 | CCOc1ccc(NS(=O)(=O)c2ccc(C(=O)NC3CCN(Cc4ccccc4)CC3)cc2)cc1 | inconclusive [inhibitor, single point] | 
56 | Cc1ccc(NC(=O)Cn2c(=O)n(Cc3nc(C)no3)c(=O)c3ccccc32)c(Cl)c1 |  | inactive: 0.435%
57 | O=C(NC1CC2CCC(C1)N2Cc1nnnn1Cc1ccco1)NC12CC3CC(CC(C3)C1)C2 (centres undefined) | active: 10 µM | 
58 | CCSc1nnc(NC(=O)C2CCCN(C(=O)c3ccc(Cl)cc3)C2)s1 (centres undefined) | inconclusive [inhibitor, single point] | 
59 | COc1ccc(Cc2nnc(SCC(=O)NCC3CCCO3)o2)cc1 (centres undefined) |  | inactive: -2.02%
60 | COC(=O)c1ccc(CN2CCC(Oc3ccc(C(=O)N4CCCCC4)cc3)CC2)cc1 | inconclusive [inhibitor, partial curve, poor fit] | 
61 | O=C(Sc1ccccc1)c1cccc(Cn2cc(C(F)(F)F)ccc2=O)c1 | inconclusive [inhibitor, partial curve, poor fit] | 
62 | CCc1nc(NCCC(C)C)c(C#N)c2c1CCCC2 |  | inactive: -26.5%
63 | NC1=C(Cl)C(=O)c2ccc(S(N)(=O)=O)cc2C1=O | inconclusive [inhibitor, full curve, poor fit] | 
64 | O=C(CN1C(=O)c2cccnc2Oc2ccc(Cl)cc21)NC1CCCCCC1 | inconclusive [inhibitor, single point] | 
